Reference: PubChem BioAssay AID1508642 (National Center for Advancing Translational Sciences (NCATS), 2021)
The whole screen tested about 43,000 compounds, of which about 200 (0.47%) were called active. Another 12% or so got no clear call; they are omitted. Calls come from the whole dose curve; as a rule, active = well fitted cell-killing curve with a large enough effect; inconclusive = small, poorly fitted or top-dose-only effect, or effect the other way; inactive = flat fitted curve, though single readings scatter. The list shows a part of the results.

test: Cell viability qHTS assay in S16 Pmp22-F2sN cells; conditions: S16 Pmp22-F2sN Schwann cells (luciferase reporters placed in the Pmp22 gene) viability, CellTiter-Glo, 24 h; series mostly up to 57.5 µM; activity change, negative = cytotoxicity: at the top concentration; note: nearly all actives have a fitted effect of over 65% in size
Outline: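 CellTiter-Glo counter-screen, qHTS, 1536-well. Cells: S16(c9) Pmp22-F2sN, 500-1,000/well in DMEM + 10% FBS. Cpd 23 nL pin transfer, 24 h, 37C/5% CO2. Read: luminescence, CCD imager.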
% is set by controls: 0 for no effect and ±100 for the full control effect.

Row | Structure (SMILES) | activity change, negative = cytotoxicity
1 | CCc1nnc(NC(=O)CSc2nccn2-c2ccc(OC)cc2)s1 | inactive: -4.21%
2 | CCn1c(C)c(C2N3CC4(C)CN2CC(C)(C3)C4=O)c2ccccc21 (centres undefined) | inactive: 7.19%
3 | CSc1ccc(CCNC(=O)c2cnc3c(C)cccn3c2=O)cc1 | inactive: -2.36%
4 | Cc1ccc(C)c(CN2C(=O)c3ccccc3S(=O)(=O)c3ccc(C(=O)N(C)C4CCCCC4)cc32)c1 | inactive: -3.51%
5 | CC(=O)c1cc2c(cc1N/C(=N/S(=O)(=O)c1ccc(Cl)cc1)c1ccc(F)cc1)OCO2 | inactive: -3.52%
6 | CC(=O)c1cccc(-n2c(=O)c3c4c(sc3n(CC(=O)c3ccccc3)c2=O)CN(C(C)=O)CC4)c1 | inactive: -3.22%
7 | Cc1nc(C)c(-c2ccc(SCC(=O)Nc3ccc(Br)cc3)nn2)s1 | inactive: -5.26%
8 | Cc1nc(-n2nc(C)c(Cc3ccccc3Cl)c2C)sc1C(=O)Nc1ccccc1F | inactive: 11.8%
9 | Cc1ccc(-c2noc(C(C)NS(=O)(=O)c3ccc(C)cc3)n2)cc1 (centres undefined) | inactive: -4.09%
10 | COc1ccc(CNC(=O)Cc2c(C)c3cc4c(C)coc4c(C)c3oc2=O)cc1 | inactive: 6.18%
11 | O=C(Nc1cccc(Cl)c1)c1cnc2sc(N3CCCC3)nn2c1=O | inactive: -18.4%
12 | CN1C(=O)Cc2cc(S(=O)(=O)N3CCN(c4ccccc4F)CC3)ccc21 | inactive: 4.81%
13 | Cc1ccc(C)c(CN2CCCN(Cc3ccc(F)cc3)S2(=O)=O)c1 | inactive: 2.98%
14 | COc1ccccc1NC(=O)C(=O)NCC(c1ccc2c(c1)OCO2)N1CCOCC1 (centres undefined) | inactive: 14.1%
15 | COc1ccccc1/C=C/c1nc2ccccc2n1C(C)C | inactive: -1%
16 | COc1ccc(Cl)cc1NC(=O)Cc1ccc(NC(=O)N2CCCCc3ccccc32)cc1 | inactive: -0.437%
17 | CCOC(=O)Cn1c(=O)n(CC2CCCO2)c2nc(-c3ccc(C)cc3)nc(C(N)=O)c21 (centres undefined) | inactive: 4.77%
18 | CC(=O)c1ccc(S(=O)(=O)N2CCn3cccc3C2c2ccc(C)cc2)cc1 (centres undefined) | inactive: -7.11%
19 | CC(C)c1ccc(C2=CC(c3ccc(C(C)C)cc3)n3nnnc3N2)cc1 (centres undefined) | inactive: 1.9%
20 | Cc1ccc2nc3c(cc(C(=O)NCC4CCCO4)c(=N)n3C(C)C)c(=O)n2c1 (centres undefined) | inactive: -17.3%
21 | Cc1ccc(CN2CCSc3ccc(C(=O)N4CCN(c5ccccc5)CC4)cc32)cc1 | inactive: -23.7%
22 | COc1ccc(N2CCN(C(=O)C3CCN(S(=O)(=O)c4cccs4)CC3)CC2)cc1 | inactive: 14.5%
23 | O=C(CC1N=C2c3ccccc3N=C(SCc3ccc(Cl)cc3)N2C1=O)NCc1cccs1 (centres undefined) | inactive: 6.78%
24 | CCOC(=O)c1ccccc1NC(=O)CSc1nc2cn(CC)nc2c(=O)n1Cc1ccc(Cl)cc1 | inactive: -24.2%

Row | Structure (SMILES) | activity change, negative = cytotoxicity
25 | Cc1ccc2c(c1)c1c(c(=O)n(-c3cccc(Cl)c3)c(=O)n1CC(=O)Nc1c(C)cccc1C)n2C | inactive: 14%
26 | O=c1c2cc3c(cc2n(Cc2ccc(Cl)cc2)c(=O)n1Cc1nc(-c2ccccc2)no1)OCO3 | inactive: 1.94%
27 | Cc1ccc(-n2c(Cc3ccccc3)nnc2SCc2nc(-c3cccs3)no2)cc1 | inactive: -9.85%
28 | CSc1cccc(NC(=O)C2CCCN(S(=O)(=O)c3ccc4c(c3)CCCN4C(C)=O)C2)c1 (centres undefined) | inactive: -16%
29 | Cn1c(=O)oc2cc(S(=O)(=O)N3CCCC(C(=O)N4CCN(c5ccc(F)cc5)CC4)C3)ccc21 (centres undefined) | inactive: -6.55%
30 | Cc1ccccc1OCC(=O)Nc1nnc(S(=O)(=O)N2CCCCCC2)s1 | inactive: 3.54%
31 | CCc1nn2c(=O)cc(COC(=O)c3ccccc3NC(=O)c3ccc(C(C)(C)C)cc3)nc2s1 | inactive: 9.64%
32 | O=C(Nc1c(C(=O)N2CCN(c3ccccc3F)CC2)oc2ccccc12)c1ccc(Br)o1 | inactive: 0.879%
33 | Oc1ccccc1-c1nc2ccc(Cl)cn2c1Nc1ccc2c(c1)OCCO2 | inactive: -0.602%
34 | CCS(=O)(=O)N1CCc2cc(C(=O)Nc3cccc(NC(C)=O)c3)ccc21 | inactive: 18.7%
35 | COc1ccc(-c2ccc(=O)n(CC(=O)Nc3ccccc3C(F)(F)F)n2)cc1 | inactive: -4.98%
36 | COc1ccc(-c2nc(CSc3nnc(C)n4c3cc3sccc34)c(C)o2)cc1 | inactive: 7.47%
37 | Cc1ccc(C2c3[nH]c4ccccc4c3CCN2C(=O)CSc2ccccc2)cc1 (centres undefined) | inactive: -18.5%
38 | COc1ccc(CNC(=O)C2=Cc3cccc(OC)c3OC2)cc1OC | inactive: 4.53%
39 | COc1ccc(OC)c(NS(=O)(=O)c2ccc3c(c2)CCCN3C(=O)C2CCC2)c1 | inactive: -2.83%
40 | O=C(Nc1ccc(F)cc1F)c1cc(CN2CCOCC2)on1 | inactive: -4.14%
41 | COc1ccc(CNC(=O)Cn2c(=O)n3nc(-c4cccc(F)c4)nc3c3ccccc32)cc1OC | inactive: -3.07%
42 | CCc1ccc(NC(=O)c2ccc(F)c(S(=O)(=O)N3CCc4ccccc4C3)c2)cc1 | inactive: -20.6%
43 | Cc1cccc(NC(=O)C(Cc2ccccc2)N2Cc3ccccc3C2=O)c1C (centres undefined) | inactive: -0.276%
44 | CCc1nn(CC(=O)NCCN(CC(C)C)CC(C)C)c(=O)c2cc3sc(C)cc3n12 | inactive: 5.49%
45 | CCc1ccc(CNC(=O)c2ccc(-n3c(C)cc4c3CCC(C)C4)cc2)cc1 (centres undefined) | inactive: 0.134%
46 | COc1cccc(C(c2sc3nc(-c4ccco4)nn3c2O)N2CCC3(CC2)OCCO3)c1 (centres undefined) | inactive: 0.609%
47 | COc1cc(Br)c(C2CC(=O)Nc3cc4c(cc32)OCCO4)cc1OC (centres undefined) | inactive: -10.9%
48 | O=C(NCC(c1ccc2c(c1)OCO2)N1CCOCC1)C(=O)Nc1ccc(Cl)cc1 (centres undefined) | inactive: 2.72%

Row | Structure (SMILES) | activity change, negative = cytotoxicity
49 | Cc1ccccc1OCCSc1nnc(-c2ccc([N+](=O)[O-])cc2)o1 | inactive: -7.12%
50 | Oc1cccc(-c2nc(-c3cccs3)c(-c3cccs3)[nH]2)c1 | inactive: -18.6%
51 | CCCN(CCC)CCCNC(=O)c1sc2nc3n(c(=O)c2c1C)CCC3 | inactive: 7.97%
52 | CCC1CCCCN1CCCNC(=O)c1sc2nc(C)cc(C)c2c1-n1cccc1 (centres undefined) | inactive: 5.69%
53 | COc1ccccc1NC(=O)c1cc2c(n(-c3ccc(C)cc3)c1=O)CC(C)(C)CC2=O | inactive: -1.29%
54 | O=C(c1ccc2c(c1)N(Cc1cccc(Cl)c1)C(=O)c1ccccc1S2(=O)=O)N1CCN(Cc2ccccc2)CC1 | inactive: -13.4%
55 | CCc1cc2c(cc3c(=O)n(CC(=O)NC(C)C)nc(CC)n32)s1 | inactive: 12.4%
56 | COc1ccc(CNC(=O)CSCc2ccc(C)cc2)c(OC)c1 | inactive: 0.235%
57 | COc1cc2c(cc1OC)n(CC(=O)Nc1ccccc1)c(=O)n1nc(-c3ccccc3)nc21 | inactive: 1.19%
58 | COC(=O)c1ccc(NC(=O)C(=O)NCCc2sc3nc(-c4ccc(OC)cc4)nn3c2C)cc1 | inactive: 1.11%
59 | O=C(CCn1c(=O)c2cccn2c2cccnc21)NCc1ccc(Cl)cc1 | inactive: 13.4%
60 | COc1ccccc1NC(=O)C1=C(C)Nc2c(C(=O)Nc3cccc(C)c3)cnn2C1c1ccccc1C (centres undefined) | inactive: -5.09%
61 | CC(CC(=O)NCc1ccc(Cl)cc1Cl)CC1=NS(=O)(=O)c2ccccc2N1 (centres undefined) | inactive: 9.98%
62 | Cc1ccc(Nc2nc3c(S(=O)(=O)c4ccccc4)nnn3c3ccc(Cl)cc23)c(C)c1 | inactive: -1.91%
63 | Cc1cccc(OC(=O)c2nc(SCc3ccccc3F)ncc2Cl)c1 | inactive: -9.37%
64 | CCOC(=O)c1ccc(NC(=O)Cn2cc(C(=O)c3cccs3)c3ccccc32)cc1 | inactive: 17.8%
65 | COc1ccc(-c2cc(C(F)(F)F)n3nc(C(=O)Nc4sc5c(c4C(=O)OC(C)C)CCCC5)cc3n2)cc1OC | inactive: 2.57%
66 | COc1ccc(N2CCN(C(CNC(=O)c3cccc(OC)c3)c3cccnc3)CC2)cc1 (centres undefined) | inactive: 5.72%
67 | CCCCOC(=O)c1c(C)oc2ccc(NS(=O)(=O)c3ccc(F)cc3C)cc12 | inactive: 5.79%
68 | CCOc1ccc(CN(C(=O)c2cc(=O)c3cc(Cl)ccc3o2)C2CCS(=O)(=O)C2)cc1 (centres undefined) | inactive: 23.5%
69 | CCc1ccc(CNc2ncnc3onc(-c4ccc(Cl)cc4)c23)cc1 | inactive: -6.21%
70 | Cn1c(C(=O)N2CCCC(C(=O)N3CCN(c4ccccc4)CC3)C2)cc2sccc21 (centres undefined) | inactive: 0.6%
71 | CCCCNC(=O)CSC1=Nc2ccccc2C2=NC(CCC(=O)NCc3ccccc3OC)C(=O)N12 (centres undefined) | inactive: -18.3%
72 | CCc1ccc(NC(=O)CSc2cn(CC(=O)N3CCOCC3)c3ccccc23)cc1 | inactive: 9.65%

Row | Structure (SMILES) | activity change, negative = cytotoxicity
73 | COc1ccc(NC(=O)Cn2c(=O)n(-c3ccc(C)c(C)c3)c(=O)c3c4c(sc32)CCCCC4)cc1Cl | inactive: 5.08%
74 | CCN(CC)C(=O)C1CCN(c2cc(C)nc3c(-c4ccc(OC)c(OC)c4)c(C)nn23)CC1 | inactive: -0.0269%
75 | O=C(NCC(c1cccnc1)N1CCc2ccccc2C1)C(=O)Nc1ccc(F)cc1F (centres undefined) | inactive: -14.2%
76 | Cc1cccc(-c2nc(C)c(CCNC(=O)c3cccs3)s2)c1 | inactive: -0.344%
77 | CC(C)c1ccc(NC(=O)CCNS(=O)(=O)c2ccc3c(c2)oc(=O)n3C)cc1 | inactive: -2.62%
78 | Cc1ccc(-n2ncc(C(=O)N3CCN(C(=O)c4ccco4)CC3)c2C2CCN(C(=O)OC(C)(C)C)CC2)cc1 | inactive: -8.83%
79 | COC(=O)c1nnn(-c2ccc(Cl)cc2)c1C(=O)OC | inactive: -5.17%
80 | O=C(CCS(=O)(=O)c1nc(-c2ccc3c(c2)OCO3)cc(C(F)(F)F)n1)Nc1ccc(F)cc1F | inactive: 1.62%
81 | O=C(c1ccc2c(c1)N(Cc1cccc(Cl)c1)C(=O)c1ccccc1S2(=O)=O)N1CCCCCC1 | inactive: -14.4%
82 | Cc1cccc(CCNC(=O)c2nn(C)c3c2CSc2ccccc2-3)c1 | inactive: 1.63%
83 | O=C(CSc1oc(-c2ccc(F)cc2)nc1S(=O)(=O)c1ccc(Cl)cc1)c1ccccc1 | inactive: -1.42%
84 | COc1cccc(-c2cn3c(n2)sc2cc(C(=O)NCCC4=CCCCC4)ccc23)c1 | inactive: -14.8%
85 | COc1ccc(Cl)cc1NC(=O)NCc1noc2ccccc12 | inactive: -4.98%
86 | Cc1ccc2c(c1)N(C(=O)N1CCC(C(=O)NCc3cccs3)CC1)CC(C)O2 (centres undefined) | inactive: -1.52%
87 | COc1ccc(CNC(=O)c2cc3c(=O)[nH]c4ccccc4c3n2C)c(OC)c1 | inactive: -0.197%
88 | Cc1cccc(N(CC(=O)NCCSc2ccc(Cl)cc2)S(C)(=O)=O)c1C | inactive: 3.35%
89 | Cc1ccc(-c2c(C(=O)N(C)Cc3ccccc3)oc(=O)c3ccccc23)cc1 | inactive: 24%
90 | O=C(CSc1ccccc1)NCc1ccc2c(c1)CCN2C(=O)c1ccc(F)cc1 | inactive: 4.63%
91 | O=C(Cc1ccccc1)N(Cc1cccnc1)c1nc2ccc(F)cc2s1 | inactive: -22.1%
92 | COc1ccc(CNC(=O)c2cc3c(=O)n(C)c4ccccc4c3n2C)cc1 | inactive: -4.84%
93 | COCCNC(=O)c1nn(-c2ccc(Cl)cc2)nc1CO | inactive: -0.299%
94 | CCc1ccc(CNC(=O)CCCN2C(=O)c3cccnc3Oc3ccc(Cl)cc32)cc1 | inactive: -21.5%
